The values that follow come from publication PMC4336329 (PLoS ONE, 2015).

SMILES strings stand for the structures. Among all 310,000 compounds or so, about 2,200 (0.71%) showed an effect of 50% or more. The effect is printed as a negative number. This is one part of the list.

Chain of human ether-à-go-go-related gene (hERG) potassium channel (Q12809 whole entry, looked up): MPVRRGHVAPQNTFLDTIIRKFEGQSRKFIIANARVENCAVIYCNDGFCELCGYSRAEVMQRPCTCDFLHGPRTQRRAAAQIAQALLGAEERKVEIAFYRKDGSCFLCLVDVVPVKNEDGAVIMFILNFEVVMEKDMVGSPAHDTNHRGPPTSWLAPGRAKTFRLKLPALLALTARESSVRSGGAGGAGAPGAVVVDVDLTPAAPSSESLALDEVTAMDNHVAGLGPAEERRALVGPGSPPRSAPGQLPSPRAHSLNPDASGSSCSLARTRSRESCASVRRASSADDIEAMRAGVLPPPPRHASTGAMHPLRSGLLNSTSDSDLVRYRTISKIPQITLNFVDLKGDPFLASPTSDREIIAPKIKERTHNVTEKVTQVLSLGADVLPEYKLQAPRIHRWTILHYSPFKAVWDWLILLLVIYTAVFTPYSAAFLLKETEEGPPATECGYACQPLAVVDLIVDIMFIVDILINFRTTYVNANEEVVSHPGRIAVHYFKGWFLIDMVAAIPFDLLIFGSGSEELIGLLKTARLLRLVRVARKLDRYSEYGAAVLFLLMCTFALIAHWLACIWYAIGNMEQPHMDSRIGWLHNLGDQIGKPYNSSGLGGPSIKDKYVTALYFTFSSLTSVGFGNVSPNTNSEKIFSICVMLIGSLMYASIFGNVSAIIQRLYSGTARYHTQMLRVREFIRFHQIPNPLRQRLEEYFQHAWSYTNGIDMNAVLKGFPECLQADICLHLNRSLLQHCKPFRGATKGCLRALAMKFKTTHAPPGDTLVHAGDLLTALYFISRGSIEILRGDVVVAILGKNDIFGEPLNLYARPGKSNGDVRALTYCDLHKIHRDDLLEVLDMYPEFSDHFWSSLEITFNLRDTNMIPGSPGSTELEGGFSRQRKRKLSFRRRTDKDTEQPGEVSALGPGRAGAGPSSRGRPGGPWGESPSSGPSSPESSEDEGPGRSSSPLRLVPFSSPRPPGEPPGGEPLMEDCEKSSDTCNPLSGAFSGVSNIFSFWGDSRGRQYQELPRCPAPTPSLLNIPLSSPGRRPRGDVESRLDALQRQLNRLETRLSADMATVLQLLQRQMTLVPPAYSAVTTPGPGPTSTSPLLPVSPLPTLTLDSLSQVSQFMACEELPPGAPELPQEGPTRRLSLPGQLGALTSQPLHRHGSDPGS

The assay addresses human ether-à-go-go-related gene (hERG) potassium channel (human, UniProt Q12809). Nature of the assay: primary screen, population patch clamp on CHO cells stably expressing hERG.
Regarding `CC(Oc1ccccc1)C(=O)N=C1SC2CS(=O)(=O)CC2N1c1ccccc1` (stereo not drawn), the “hERG current change (%, negative = inhibition) at 1uM” value was 35.1%.
With `COCC(C)OC(=O)/C(C#N)=C\c1coc2ccc(C)cc2c1=O` (stereo not drawn), the “hERG current change (%, negative = inhibition) at 1uM” value amounted to 3.46%.
For the compound `O=C(c1ccc(C(F)(F)F)cc1)C1CCCN(C(=O)CCc2ccncc2)C1` (stereo not drawn), the “hERG current change (%, negative = inhibition) at 1uM” value is -31.1%.
The figure for `O=C(C(=S)N1CCOCC1)c1c[nH]c2ccccc12` is 2.69%; for `O=C(O)CC(NS(=O)(=O)c1ccc(Br)cc1)c1ccco1` (stereo not drawn) it is -5.87%.
For `CCn1c(-c2ccc(F)cc2)cnc1SCC(=O)N1CCc2ccccc21`, the “hERG current change (%, negative = inhibition) at 1uM” value stood at 7.5%.
`O=C(Nc1ccccc1)NC1CS(=O)(=O)CC1O` (stereo not drawn): the “hERG current change (%, negative = inhibition) at 1uM” value amounted to 6.66%.
Turning to `CNC(=O)c1ccccc1Sc1ccccc1CO`, the “hERG current change (%, negative = inhibition) at 1uM” value is reported as 12.4%.
With `CCn1cc(CN2CCc3c([nH]c4ccccc34)C2c2cccc(OC)c2OC)c(C)n1` (stereo not drawn), the “hERG current change (%, negative = inhibition) at 1uM” value came out at 13.3%.
The result for `CCOC(=O)C1CCN(c2nc3c(C)cccn3c(=O)c2/C=C(\C#N)S(=O)(=O)c2ccccc2)CC1` reads 2.92%; that for `Cc1cc(C)c(S(=O)(=O)Nc2ncccc2C)c(C)c1`, 8.56%; that for `COc1ccc(C(CNC(=O)c2ccc(Cl)c(S(=O)(=O)N3CCCC3)c2)N2CCCC2)cc1` (stereo not drawn), -32.1%.
For `NS(=O)(=O)c1ccc(NC(=S)NC(=O)c2ccc(Br)o2)cc1`, the “hERG current change (%, negative = inhibition) at 1uM” value is recorded as 7.02%.
For `Cc1cc(C(=O)COC(=O)/C=C/c2cccc(F)c2)c(C)n1C`, the “hERG current change (%, negative = inhibition) at 1uM” value was determined as 9.77%.
In the case of `Cc1[nH]c2ccccc2c1C1=NNC(=Nc2ccc(F)cc2)SC1`, the “hERG current change (%, negative = inhibition) at 1uM” value is on record as 12%.
The result for `O=C(NC1(C(F)(F)F)NC(=O)N(c2ccc(F)cc2)C1=O)c1ccncc1` (stereo not drawn) reads -10.4%; that for `O=C(Cc1ccc(Cl)cc1Cl)NC1CCCCCC1`, -0.129%.
For `O=C(CN1C(=O)CCSc2ccccc21)NC1CCCCC1`, the “hERG current change (%, negative = inhibition) at 1uM” value is recorded as 21.3%.
Regarding `O=C(C1CCCO1)N1CCN(C(=S)Nc2ccc(Cl)c(Cl)c2)CC1` (stereo not drawn), the “hERG current change (%, negative = inhibition) at 1uM” value came to 10.4%.
In the case of `COc1ccc(CC(=O)Nc2ccccc2N2CCCC2)cc1`, the “hERG current change (%, negative = inhibition) at 1uM” value is 1.91%.
Take `Cc1cc2c3c(c1C)C1(C(=O)N3C(C)(C)CC2C)C(C#N)=C(N)OC2=C1C(=O)CC(C)(C)C2` (stereo not drawn): the “hERG current change (%, negative = inhibition) at 1uM” value was 6.63%.
As to `CCOc1ccccc1CN1CCN(Cc2nc3ccccc3s2)CC1CCO` (stereo not drawn), the “hERG current change (%, negative = inhibition) at 1uM” value was -67.7%.
Turning to `COc1ccc(O)c(C(=O)c2cc(SCC(=O)O)c3nc4sc5c(c4c(=O)n3c2)CCCC5)c1`, the “hERG current change (%, negative = inhibition) at 1uM” value is 7.36%.
Consider `CC1CCCC(NC(=O)CSc2nnc(N)s2)C1C` (stereo not drawn), for which the “hERG current change (%, negative = inhibition) at 1uM” value worked out at 6.29%.
Consider `COc1ccc(/C=N/NC(=O)C2COc3ccccc3O2)cc1OC` (stereo not drawn), for which the “hERG current change (%, negative = inhibition) at 1uM” value was 6.65%.
On to `CCOC(=O)C1CCN(C(=O)COc2cc(C)c(Br)c(C)c2)CC1`, for which the “hERG current change (%, negative = inhibition) at 1uM” value is listed as 5.02%.
For the compound `CC(=O)N/C(N)=N/c1nc2cc(C)ccc2o1`, the “hERG current change (%, negative = inhibition) at 1uM” value is recorded as 11.9%.
As for `N/C(COc1ccc(Cl)cc1)=N\NS(=O)(=O)c1ccccc1`, the “hERG current change (%, negative = inhibition) at 1uM” value turned out to be 6.81%.
For the compound `Cc1ccc(/C=C/C(=O)N2CCN(c3ncccn3)CC2)o1`, the “hERG current change (%, negative = inhibition) at 1uM” value is listed as 18.3%.
The figure for `CC(=O)c1sc(NC(=O)C2COc3ccccc3O2)nc1C` (stereo not drawn) is 7.18%; for `Cc1cc(-c2ccccc2)n[nH]1` it is 7.19%.
For `CCOc1ccccc1NC(=S)N1CCC(NC(=O)NC23CC4CC(CC(C4)C2)C3)CC1`, the “hERG current change (%, negative = inhibition) at 1uM” value is -4.42%.
With `CCc1ccccc1NC(=O)COC(=O)C1CC(=O)N(c2ccc(F)cc2)C1` (stereo not drawn), the “hERG current change (%, negative = inhibition) at 1uM” value turned out to be 0.96%.
Take `NC(=O)NCc1ccc(Cl)cc1`: the “hERG current change (%, negative = inhibition) at 1uM” value is given as 10.9%.
For the compound `COc1ccc(OCc2nnc(SCC(=O)N3CCCc4ccccc43)n2-c2ccc(C)cc2)cc1`, the “hERG current change (%, negative = inhibition) at 1uM” value was 3.22%.
As to `Cc1cccc(NC(=O)N(C)Cc2cccs2)c1`, the “hERG current change (%, negative = inhibition) at 1uM” value was 0.957%.
With `CSc1cc(-c2ccccc2)n(Cc2ccccc2Cl)c(=O)c1C#N`, the “hERG current change (%, negative = inhibition) at 1uM” value is 13.9%.
The result for `CC(OC(=O)Cn1cnc2c1c(=O)n(C)c(=O)n2C)C(=O)NC1CCCCC1C` (stereo not drawn) reads 13.9%; that for `Cc1ccc(-c2cc(-c3nnc(SCC(=O)NCC(C)C)n3N)c3ccccc3n2)cc1`, 9.52%.
Consider `COc1ccc2ccccc2c1/C=N/NC(=O)c1cccc([N+](=O)[O-])c1`, for which the “hERG current change (%, negative = inhibition) at 1uM” value is given as 14.1%.
For the compound `O=S(=O)(c1ccc(Cl)s1)N1CCN(c2ncccn2)CC1`, the “hERG current change (%, negative = inhibition) at 1uM” value is recorded as -1.08%.
On to `CCOC(=O)c1c(-c2ccsc2)csc1N`, for which the “hERG current change (%, negative = inhibition) at 1uM” value is on record as -1.94%.
The figure for `COc1ccc(S(=O)(=O)n2nc(OC(=O)c3ccc(C)cc3)cc2N)cc1` is 3.5%; for `CC(C)(C)CC(=O)Nc1nnc(SCC(=O)NC2CCCCC2)s1` it is -1.5%; for `Cc1ccc2c(c1)C1(OCCCO1)C(=O)N2CC#N` it is 17.6%.
As for `COc1ccc(NC(=O)CSc2nnc(C3CC3)n2C)cc1S(=O)(=O)N1CCCCC1`, the “hERG current change (%, negative = inhibition) at 1uM” value was -2.02%.
For the compound `CC(C)(C)N1C(=O)c2ccc(C(=O)O)cc2C1=O`, the “hERG current change (%, negative = inhibition) at 1uM” value came out at 12.9%.
As for `Cc1ccc(NC(=O)COC(=O)c2ccc(OCc3c(C)noc3C)cc2)cc1S(=O)(=O)N1CCOCC1`, the “hERG current change (%, negative = inhibition) at 1uM” value was 7.98%.
On to `CCOC(=O)C(CCCOc1ccc(C)cc1)C(=O)OCC`, for which the “hERG current change (%, negative = inhibition) at 1uM” value is 16.9%.
Turning to `O=C(NCCOc1ccccc1F)c1cccc(S(=O)(=O)N2CCN(c3ccccc3)CC2)c1`, the “hERG current change (%, negative = inhibition) at 1uM” value came out at 17.6%.
Take `O=C(c1noc2c1CCCC2)N1CCc2ccccc2C1`: the “hERG current change (%, negative = inhibition) at 1uM” value is on record as 4.42%.
Take `CC(C)(C)c1csc(NC(=O)CCc2ccccc2)n1`: the “hERG current change (%, negative = inhibition) at 1uM” value came out at 13.8%.
With `Cc1cc(N2C(=O)C(O)=C(C(=O)c3ccco3)C2c2ccc([N+](=O)[O-])cc2)no1` (stereo not drawn), the “hERG current change (%, negative = inhibition) at 1uM” value was determined as 9.78%.
Regarding `CN(C)c1ccc(/C=N/NC(=O)c2ccccc2Cl)cc1`, the “hERG current change (%, negative = inhibition) at 1uM” value is 10.7%.
In the case of `O=C(c1ccc(S(=O)(=O)NCc2ccco2)cc1)N1CCCC(C(F)(F)F)C1` (stereo not drawn), the “hERG current change (%, negative = inhibition) at 1uM” value is reported as 17.7%.
Turning to `COc1ccc(CCNC(=O)CSc2nc3[nH]ncc3c(=O)n2-c2ccc(Br)cc2)cc1OC`, the “hERG current change (%, negative = inhibition) at 1uM” value was 9.59%.
Turning to `CN(CC(=O)Nc1cccc(F)c1)C(=O)COc1cccc2c1OC(C)(C)C2`, the “hERG current change (%, negative = inhibition) at 1uM” value is recorded as 2.49%.
